In all, about 33,000 sequences were measured (“E-score (-0.5 to 0.5)”: median about -0.012, highest 2% from about 0.29 on). This is one part of the list.
The sequences below were run against T1, Ybr033w (UniProt P38073) (assay: PBM E-score (8-mer binding enrichment) (E-score (-0.5 to 0.5)); higher = stronger / more preferred TF binding; most listed sequences are background and not binding sites). Settings: protein concentration: 200 nM; construct: GST-full length.
T1 sequence: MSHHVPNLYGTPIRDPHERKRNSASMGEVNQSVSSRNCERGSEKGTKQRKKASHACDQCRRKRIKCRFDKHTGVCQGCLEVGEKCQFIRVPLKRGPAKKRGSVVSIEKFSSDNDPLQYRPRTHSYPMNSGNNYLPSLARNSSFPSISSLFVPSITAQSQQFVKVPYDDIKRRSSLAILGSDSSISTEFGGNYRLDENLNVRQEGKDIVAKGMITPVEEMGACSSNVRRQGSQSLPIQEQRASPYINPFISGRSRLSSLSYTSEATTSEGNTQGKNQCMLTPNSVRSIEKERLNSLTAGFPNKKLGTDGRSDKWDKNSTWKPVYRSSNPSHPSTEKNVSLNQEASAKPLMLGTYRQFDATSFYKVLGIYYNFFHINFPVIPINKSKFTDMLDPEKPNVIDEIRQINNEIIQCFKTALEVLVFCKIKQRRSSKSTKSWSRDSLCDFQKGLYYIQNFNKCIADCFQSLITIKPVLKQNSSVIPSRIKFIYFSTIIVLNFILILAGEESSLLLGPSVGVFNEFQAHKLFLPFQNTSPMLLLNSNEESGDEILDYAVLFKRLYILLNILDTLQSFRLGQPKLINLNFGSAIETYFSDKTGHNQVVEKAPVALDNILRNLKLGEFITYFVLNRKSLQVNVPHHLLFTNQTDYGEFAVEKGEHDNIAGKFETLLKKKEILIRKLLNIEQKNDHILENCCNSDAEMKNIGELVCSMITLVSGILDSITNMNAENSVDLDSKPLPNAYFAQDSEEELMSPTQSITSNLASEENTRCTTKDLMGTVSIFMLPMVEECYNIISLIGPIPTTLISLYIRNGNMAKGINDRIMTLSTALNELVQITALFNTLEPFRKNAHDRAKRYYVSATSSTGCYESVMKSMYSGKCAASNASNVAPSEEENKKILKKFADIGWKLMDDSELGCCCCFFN
Summary of the method: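 Universal all-10-mer Agilent arrays, double-stranded by primer extension on fresh or once-stripped slides, were probed with about 100-200 nM GST-tagged yeast transcription factors made by PURExpress. Fluorescent anti-GST detected bound protein, and masliner normalised the scans. E-scores from the Universal PBM Analysis Suite were given to each ungapped eight-base word pooled with its reverse complement.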

Sequence | PBM E-score
CGCCCCCG | -0.255
TGGATGAA | 0.219
AAGGCCCC | -0.252
ACGAACAA | 0.155
AATTAGGG | -0.121
ACTGTGTC | 0.0621
CGGGGACG | -0.255
CACGCACA | 0.136
GCCACACA | -0.102
GAAGAATA | 0.256
AGTGTAAC | -0.0226
ACAATCAC | 0.186
AGGGAGCC | -0.315
CAATGGTA | 0.11
CTGGCTAA | -0.106
ACGAGGCG | 0.0677
GACAATTA | 0.138
CGGAGTAG | 0.0447
CCGAGGAG | -0.217
AGATAGCT | 0.0181
TGCTCACA | 0.00417
AGTGTTTC | 0.0901
AGTTGAAC | 0.00349
AAGAATAC | 0.211
ATACTCGG | 0.0588

Sequence | PBM E-score
CACGAACA | 0.0414
CATGTATA | 0.152
CGCCGGGA | -0.247
GCGCTCCC | -0.129
ATGTTTGA | 0.103
TCCTGGCA | -0.102
ATGCTGTG | 0.0819
ATAACGTA | 0.226
TAAGAGCA | -0.0966
CCAAGGCC | -0.209
ATGAGTGG | -0.0412
GCTTAGAC | -0.183
GCGAATCA | 0.105
CCCCTGGA | -0.276
ACGCGCAT | -0.0106
CAATAAAG | 0.151
AAATGATT | 0.273
AGATATCC | 0.0838
ATGTCAGA | -0.0759
AGCGAACA | 0.0794
ACGATCGC | 0.032
TCCGTGAA | -0.0042
CTACTGGA | -0.0522
ACCCCCTA | -0.252
CACTTGAG | -0.108

Sequence | PBM E-score
GTAAAGGA | -0.0618
AGGGACAA | -0.149
GCGAGGCC | -0.0973
ACCAACCG | -0.0498
GACCAGAA | 0.0649
GGGCCTTA | -0.206
ACGAATAA | 0.0842
GCCGGGCC | -0.243
TCCTTGCA | -0.106
AGCCCCCA | -0.395
GTTTCGAA | 0.155
AGGTCTCG | -0.178
GCAGAACA | 0.0454
GTACGAAC | 0.195
ATACAGTA | 0.136
CAGCCGCG | -0.218
CCGGGCAG | -0.122
ACTTGACC | -0.199
ACCGTGAC | -0.159
AAAAATGG | 0.145
TCCATACA | 0.0807
CGTGGTAC | -0.0603
TATTTCCA | 0.205
AAGCGTTG | -0.152
AGGAGAGC | -0.281

Sequence | PBM E-score
CTATAGCA | 0.136
CGGAGCCC | -0.354
AGAAGACA | 0.0985
CTACTTAA | 0.00655
CATTCAAG | 0.0662
GAGTATGC | 0.023
CCTCCGTA | -0.0161
AGTCCTAG | -0.163
GACACGTA | -0.0468
GGCTCACA | -0.0959
AGCGTCTC | -0.264
AAGGACCG | -0.169
CATGTCGG | 0.00056
CAGCGTAG | 0.0591
CATCGAGC | -0.0235
CAGTCGTC | -0.0227
GAATGGCC | -0.069
CTCCGGTC | -0.113
CCTCCTGA | -0.201
ATGAGATA | 0.235
CCGGTCCG | -0.21
TCCGAGGA | 0.0122
CCCGTCTC | -0.124
GGACTTAC | -0.101
AGCGTATC | -0.0737

Sequence | PBM E-score
CGTAGGCC | -0.082
GCCCTCGA | -0.34
ACGAGCCT | -0.183
ACCAGCAA | 0.105
CTACCCTC | -0.0104
AGCTAGAC | -0.217
GATTGGCA | -0.067
TCAATCCA | 0.114
ATGGGTTG | -0.0803
CTAAGCAG | -0.105
GCACCCAA | -0.103
GTCATGTA | -0.0598
GCGATCAA | 0.0477
GAATGTTA | 0.108
AGTGTGAA | 0.16
AGCGTCCG | -0.0609
AAAGAGAC | -0.0019
ATGCATCG | 0.0109
ACGGCGAC | -0.0964
AATTTAGG | 0.229
AAGCATAA | 0.0727
GATGCTAA | 0.0328
ACTCCGGC | -0.0778
ATCGTAGC | -0.0332
GACAACTA | 0.0675

Sequence | PBM E-score
AGACATAC | 0.0201
AGAGGCAT | -0.0565
CGGATTTA | 0.179
CCAGCAAC | 0.0515
CAAGCATG | 0.0671
AATCGGGC | -0.0975
CAATTCAA | 0.172
ACCTTAAT | 0.186
CTAACGGC | -0.0341
CGACGGGC | -0.174
CATTCGCG | 0.0443
AACTTAGC | 0.0118
ACAATCCA | 0.235
AGATAAAG | 0.195
ACACGAGC | -0.166
ATGACTCG | -0.0516
GGATTGCC | -0.0243
ATTTAAAT | 0.227
ATTTCGGC | 0.11
CCCTTTGC | -0.134
CAGCTGCC | -0.163
AGTGTTTA | 0.277
AGCCAAGA | -0.111
TCCGATCA | 0.164
GTCAGTGA | -0.159

Sequence | PBM E-score
CACTACGG | -0.0837
ACGACGGC | -0.325
ACATATAT | 0.258
ACTTTGCC | -0.125
AGTGACGG | 0.0535
GTATATAA | 0.168
ATTGGACG | 0.00995
AGAGAAAA | 0.165
ACGTAATC | 0.00761
CTTCCGTA | 0.144
CAATGTCA | 0.218
ACTATCGG | 0.0365
TCACGGCA | -0.133
CCGAGGCG | -0.187
ACCCCTGA | -0.215
AACCCCGG | -0.178
ATGGATTC | -0.102
CCACATCA | -0.00104
ACTCTGTG | -0.109
AAAAAAGT | 0.353
CTGTAACA | 0.0583
AATTGAGT | 0.204

— the supplement of paper PMC3334620
